Drawing on the GPR68 mutational scans of Howard et al. (2025), this text covers cAMP reporter score and surface expression score for 4 variants.

First the molecules themselves.
B1: GPR68, Q15743 (parent)
chain: MGNITADNSSMSCTIDHTIHQTLAPVVYVTVLVVGFPANCLSLYFGYLQIKARNELGVYLCNLTVADLFYICSLPFWLQYVLQHDNWSHGDLSCQVCGILLYENIYISVGFLCCISVDRYLAVAHPFRFHQFRTLKAAVGVSVVIWAKELLTSIYFLMHEEVIEDENQHRVCFEHYPIQAWQRAINYYRFLVGFLFPICLLLASYQGILRAVRRSHGTQKSRKDQIQRLVLSTVVIFLACFLPYHVLLLVRSVWEASCDFAKGVFNAYHFSLLLTSFNCVADPVLYCFVSETTHRDLARLRGACLAFLTCSRTGRAREAYPLGAPEASGKSGAQGEEPELLTKLHPAFQTPNSPGSGGFPTGRLA

Scores with a large standard error are left out. The source holds two more conditions with little spread; they are left out. Read del as a deletion of the residues named and ins as an insertion between two positions. For some assays here: The concentration of ogerin is not given here.

The variants in data set [1] derive from B1. The experiment in a line: cAMP reporter score (Enrich2 score, wild type = 0); higher = more signal; HEK293T, FACS bins.
The variants in data set [2] derive from B1. In words: surface expression score (Enrich2 score, wild type = 0); higher = more signal; HEK293T, FACS bins.

In the case of MGNITADNSSMSCTIDHTIHQTLAPVVYVTVLVVGFPANCLSLYFGYLQIKARNELGVYLCNLTVADLFYICSLPFWLQYVLQHMNWSHGDLSCQVCGILLYENIYISVGFLCCISVDRYLAVAHPFRFHQFRTLKAAVGVSVVIWAKELLTSIYFLMHEEVIEDENQHRVCFEHYPIQAWQRAINYYRFLVGFLFPICLLLASYQGILRAVRRSHGTQKSRKDQIQRLVLSTVVIFLACFLPYHVLLLVRSVWEASCDFAKGVFNAYHFSLLLTSFNCVADPVLYCFVSETTHRDLARLRGACLAFLTCSRTGRAREAYPLGAPEASGKSGAQGEEPELLTKLHPAFQTPNSPGSGGFPTGRLA [D85M], the cAMP reporter score in data set [1] (pH 5.5) is -0.489; in data set [1] (pH 6) it was -0.486; in data set [1] (pH 6, modulator: ogerin), -0.777; in data set [1] (pH 6.5, modulator: ogerin), -0.227. Further, the surface expression score in data set [2] is -1.18.
Regarding MGNITADNSSMSCTIDHTIHQTLAPVVYVTVLVVGFPANCLSLYFGYLQIKARNELGVYLCNLTVADLFYICSLPFWLQYVLQHINWSHGDLSCQVCGILLYENIYISVGFLCCISVDRYLAVAHPFRFHQFRTLKAAVGVSVVIWAKELLTSIYFLMHEEVIEDENQHRVCFEHYPIQAWQRAINYYRFLVGFLFPICLLLASYQGILRAVRRSHGTQKSRKDQIQRLVLSTVVIFLACFLPYHVLLLVRSVWEASCDFAKGVFNAYHFSLLLTSFNCVADPVLYCFVSETTHRDLARLRGACLAFLTCSRTGRAREAYPLGAPEASGKSGAQGEEPELLTKLHPAFQTPNSPGSGGFPTGRLA [D85I], the cAMP reporter score in data set [1] (pH 5.5) was -1.43; in data set [1] (pH 6), -0.97; in data set [1] (pH 6, modulator: ogerin), -0.898; in data set [1] (pH 6.5, modulator: ogerin) it was -0.731. In addition, the surface expression score in data set [2] was -2.08.
Take MGNITADNSSMSCTIDHTIHQTLAPVVYVTVLVVGFPANCLSLYFGYLQIKARNELGVYLCNLTVADLFYICSLPFWLQYVLQHKNWSHGDLSCQVCGILLYENIYISVGFLCCISVDRYLAVAHPFRFHQFRTLKAAVGVSVVIWAKELLTSIYFLMHEEVIEDENQHRVCFEHYPIQAWQRAINYYRFLVGFLFPICLLLASYQGILRAVRRSHGTQKSRKDQIQRLVLSTVVIFLACFLPYHVLLLVRSVWEASCDFAKGVFNAYHFSLLLTSFNCVADPVLYCFVSETTHRDLARLRGACLAFLTCSRTGRAREAYPLGAPEASGKSGAQGEEPELLTKLHPAFQTPNSPGSGGFPTGRLA [D85K]: the cAMP reporter score was -1.27 in data set [1] (pH 5.5); -0.773 in data set [1] (pH 6); -1.78 in data set [1] (pH 6, modulator: ogerin); -0.681 in data set [1] (pH 6.5, modulator: ogerin). Besides, the surface expression score in data set [2] came to 0.642.
The like results for MGNITADNSSMSCTIDHTIHQTLAPVVYVTVLVVGFPANCLSLYFGYLQIKARNELGVYLCNLTVADLFYICSLPFWLQYVLQHLNWSHGDLSCQVCGILLYENIYISVGFLCCISVDRYLAVAHPFRFHQFRTLKAAVGVSVVIWAKELLTSIYFLMHEEVIEDENQHRVCFEHYPIQAWQRAINYYRFLVGFLFPICLLLASYQGILRAVRRSHGTQKSRKDQIQRLVLSTVVIFLACFLPYHVLLLVRSVWEASCDFAKGVFNAYHFSLLLTSFNCVADPVLYCFVSETTHRDLARLRGACLAFLTCSRTGRAREAYPLGAPEASGKSGAQGEEPELLTKLHPAFQTPNSPGSGGFPTGRLA [D85L] were, in that order, -0.917, -1.07, -0.776, -0.615 and -2.22.
